PubChem BioAssay AID504845 (National Center for Advancing Translational Sciences (NCATS), 2011)
Out of some 390,000 compounds screened, about 150 (0.038%) were called active. This list was built around the results that the source calls inconclusive (neither active nor inactive); the mix of calls is not that of the screen. The call rests on the fitted dose curve; in most records, active means well fitted inhibition curve with a large enough effect; inconclusive means small, poorly fitted or top-dose-only effect; inactive means no such curve, though single readings can be large or run the other way. Potencies of inconclusive entries are doubtful fits and often do not repeat.

Target: Regulator of G-protein signaling 4 (Homo sapiens) (UniProt P49798)
Sequence of UniProt P49798 (P49798 whole entry, looked up): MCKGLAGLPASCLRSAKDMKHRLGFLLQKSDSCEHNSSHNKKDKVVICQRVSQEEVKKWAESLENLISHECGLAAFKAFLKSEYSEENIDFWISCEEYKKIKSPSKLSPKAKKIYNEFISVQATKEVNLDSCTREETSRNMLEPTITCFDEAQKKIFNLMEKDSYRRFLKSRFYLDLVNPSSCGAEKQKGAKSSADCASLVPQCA
Experiment: Inhibitors of Regulator of G Protein Signaling (RGS) 4: qHTS; further: nearly all actives have a fitted effect of over 75% in size
Details: Transcreener GDP fluorescence polarization, RGS4-accelerated GTP hydrolysis; series mostly up to 114 µM
In short: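 MLSMR compounds (23 nl, pin-transferred) preincubated 10 min at room temperature with a 500nM (2x) first reagent, then RGS4 at 900nM (2x) plus Transcreener GDP mix added; fluorescence polarization (620/688 nm) read before and after 90 min at 30 °C.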
Potency means the concentration at half of the fitted maximal effect; tags describe the fitted curve by direction and shape.

Compound	Potency
CCc1cccc(C)c1NC(=O)c1ccc2c(c1)CCN2S(=O)(=O)CC	inconclusive: 100 µM [inhibitor, partial curve, poor fit]
Cc1ccc(-n2c(C)cc(/C=N/NC(=O)CN(c3ccc(C)cc3C)S(C)(=O)=O)c2C)cc1	inconclusive: 89.1 µM [inhibitor, single point]
COc1ccc(S(=O)(=O)NCCc2sc3nc(-c4ccc(C)cc4)nn3c2C)cc1F	inactive
CCN(CC)S(=O)(=O)c1ccc(NC(=O)C2c3ccccc3Oc3ccccc32)cc1	inactive
Cc1ccccc1C1NC(=S)NC2=C1C(=O)CCC2 (configuration not stated)	inconclusive: 89.1 µM [inhibitor, single point]
O=C(COc1ccc2oc(-c3ccccc3)cc(=O)c2c1)NCc1ccco1	inconclusive: 56.2 µM [inhibitor, partial curve, poor fit]
NC(=O)COc1ccc(NC(=O)OCc2ccccc2)cc1	inactive
Cc1ccnc(NC(=O)CCC(=O)N(CC(=O)NC(C)(C)C)c2ccc3c(c2)OCCO3)c1	inactive
O=C(Nc1cccnc1)NC1CCCCC1	inconclusive: 100 µM [inhibitor, partial curve, poor fit]
CCCCN(C)C(=O)c1ccc2c(c1)N(Cc1ccc(F)cc1)C(=O)c1ccccc1S2(=O)=O	inactive
O=C(Cc1ccccc1[N+](=O)[O-])NCCCc1ccccc1	inconclusive: 50.1 µM [inhibitor, partial curve, poor fit]
Cc1ccc(NC(=O)Cn2c(O)c(N=NS(=O)(=O)c3ccc(C)cc3)c3ccccc32)cc1	inconclusive: 79.4 µM [inhibitor, partial curve, poor fit]
CC1=C(c2ccc(Cl)cc2)S(=O)(=O)N=C1N1CCC(C(=O)NCCc2ccco2)CC1	inconclusive: 70.8 µM [inhibitor, single point]
C=CCSC1=N/C(=C\C=C\c2ccco2)C(=O)S1	inconclusive: 28.2 µM [inhibitor, full curve, poor fit]
O=S(=O)(Nc1cc2nc3ccccc3nc2n1Cc1ccccc1)c1ccc(Cl)cc1	inconclusive: 39.8 µM [inhibitor, partial curve, poor fit]
FC(F)(F)C1=Nc2cccc3cccc(c23)N1	inconclusive: 44.7 µM [inhibitor, partial curve, poor fit]
CC(C)Oc1ccccc1C1CC(=O)Nc2cc3c(cc21)OCCO3 (configuration not stated)	inactive
O=C(NC(=S)NC(=O)c1ccccc1F)c1ccccc1F	inconclusive: 35.5 µM [inhibitor, full curve, poor fit]
O=[N+]([O-])c1ccc(-c2ccc(/C=N/n3cnnc3)o2)c(Br)c1	inconclusive: 50.1 µM [inhibitor, partial curve, poor fit]
O=C(CNc1ccc(Br)cc1)c1ccc(O)cc1	inconclusive: 89.1 µM [inhibitor, partial curve, poor fit]
CCN(CCCNC(=O)CCCOc1cc(=O)n(C)c2ccccc12)Cc1ccccc1	inconclusive: 89.1 µM [inhibitor, single point]

Compound	Potency
COc1ccc(C(=O)C2CCN(C(=O)c3ccc(OC)cc3)CC2)cc1	inactive
CCCCSC(=O)Nc1ccccc1	inactive
Cc1c(Cc2ccc3c(c2)OCO3)sc(NC(=O)c2ccccc2)c1C(N)=O	inconclusive: 79.4 µM [inhibitor, single point]
C#CCOc1ccc(/C=C2/C(=O)NN(c3ccccc3)C2=O)cc1OC	inconclusive: 50.1 µM [inhibitor, partial curve, poor fit]
COc1ccc(C)c2sc(N(CCCN(C)C)C(=O)c3ccc(S(=O)(=O)N4CCc5ccccc5C4)cc3)nc12	inactive
COc1ccc(C(=O)Nc2c(O)ccc3ccccc23)cc1	inconclusive: 44.7 µM [inhibitor, partial curve, poor fit]
Cc1ccc(-c2nc3ccccn3c2Nc2ccccc2)o1	inconclusive: 17.8 µM [inhibitor, full curve, poor fit]
CCc1cc(C(=O)NCCN(C)C)cs1	inactive
CC(C)CCOc1ccc(/C=N/N2C(=O)CSC2=S)cc1	inconclusive: 44.7 µM [inhibitor, partial curve, poor fit]
Cc1ccc2occ(CC(=O)Nc3ccc(Cl)c(C(F)(F)F)c3)c2c1	inactive
CCOC(=O)C1=C(CC)Nc2ccccc2N/C1=N\S(=O)(=O)c1cc(Br)ccc1Br	inconclusive: 100 µM [inhibitor, single point]
Cc1cccc(N(Cc2cc3ccc(C)cc3[nH]c2=O)S(=O)(=O)c2ccccc2)c1	inactive
O=C(Nc1ccc(Nc2ccncc2)cc1)c1ccc(Nc2ccnc3ccc([N+](=O)[O-])cc23)cc1	inconclusive: 112 µM [inhibitor, partial curve, poor fit]
COC(=O)c1ccc(CSc2n[nH]c(=S)s2)o1	inconclusive: 79.4 µM [inhibitor, partial curve, poor fit]
CCOc1cc(NC(=S)NCCCN2CCOCC2)c(OCC)cc1NC(=O)C1CCCCC1	inconclusive: 89.1 µM [inhibitor, single point]
CCN(CC)S(=O)(=O)c1cccc(C(=O)N[C@H](C(=O)O)C(C)C)c1	inactive
CSc1nc(=S)cc(C)[nH]1	inconclusive: 20 µM [inhibitor, full curve, poor fit]
CC(C)NC(=O)Nc1cccc2c1O[C@H](CN(C)C(=O)NC1CCCCC1)[C@H](C)CN([C@H](C)CO)C2=O	inconclusive: 89.1 µM [inhibitor, single point]
C=CCN(CC=C)C(=S)NC(=O)c1ccc(C)c(Br)c1	inconclusive: 79.4 µM [inhibitor, partial curve, poor fit]
Cc1ccc(-c2nc3ccccn3c2Nc2ccc3c(c2)OCCO3)o1	inconclusive: 17.8 µM [inhibitor, full curve, poor fit]
Cc1cc(C)n(Cc2ccccc2)c(=O)c1S(=O)(=O)c1ccccc1	inactive
